# Experimental data published in PubChem BioAssay AID686979 (National Center for Advancing Translational Sciences (NCATS), 2013).
# Several values for one entry are separate records, joined by “and”; a condition that tells them apart may be missing. Equal entries are not always repeated. Out of some 420,000 compounds screened, about 50,000 (12%) were called active. The shares of active, inactive and inconclusive entries below differ from those in the screen. The call rests on the fitted dose curve; in most records, active means well fitted inhibition curve with a large enough effect; inconclusive means small, poorly fitted or top-dose-only effect; inactive means flat fitted curve, though single readings scatter. Potencies beside an inconclusive call are fits to weak or partial responses and may not hold up.
# Test: qHTS for Inhibitors of human tyrosyl-DNA phosphodiesterase 1 (TDP1): qHTS in cells in presence of CPT; further: nearly all actives have a fitted effect of over 55% in size
# Conditions: chicken DT40 Tdp1-/-;hTDP1 cells + 20 nM CPT, ATP luminescence, 48 h; series mostly up to 46.2 µM
# In short: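 Chicken DT40 Tdp1-/- cells complemented with human TDP1, 400 cells/well, exposed to compounds plus 20 nM camptothecin for at least 48 h at 37 C; viability read as ATP content by CellTiter-Glo luminescence.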
# Potency means the concentration at half of the fitted maximal effect; tags describe the fitted curve by direction and shape.
row,SMILES,Potency
1,Cc1nc2cnc(Oc3ccccc3)nc2n(Cc2cccs2)c1=O,"inconclusive: 29.1 µM [inhibitor, single point]"
2,O=C(NCCCN1CCOCC1)c1cccnc1SCc1ccccc1Cl,inactive
3,COc1ccccc1C1CCN(C(=O)C2CCCCC2)CC1,"inconclusive: 18.4 µM [inhibitor, partial curve]"
4,COc1ccc(NC(=O)c2ccc(NC(=O)CCS(=O)(=O)c3cccs3)cc2)cc1Cl,"inconclusive: 29.1 µM [inhibitor, single point]"
5,CCN(CC)CCNC(=O)c1ccc(NC(=O)C2CC(=O)N(CCc3ccc(OC)c(OC)c3)C2)cc1 (configuration not stated),inactive
6,CN(C(=O)c1coc(=O)c2ccccc12)c1ccc(Br)cc1,inactive
7,CCN1CCN(C(=O)/C(C#N)=C/c2ccc(OC(F)F)cc2)CC1,"inconclusive: 29.1 µM [inhibitor, single point]"
8,CCc1nnc(NC(=O)CSc2nccn2Cc2ccc(Cl)cc2)s1,inactive
9,O=C(C[C@@H]1C[C@@H]2c3cc(NS(=O)(=O)c4ccc(F)cc4)ccc3O[C@@H]2[C@@H](CO)O1)NC1CCCCC1,"inconclusive: 16.4 µM [inhibitor, single point]"
10,Cc1c(C#N)c(O)n(C)c(=O)c1N=Nc1ccc(S(N)(=O)=O)cc1,"inconclusive: 18.4 µM [inhibitor, single point]"
11,CCCOc1ccc(C(=O)N2CCCC2)cc1OC,inactive
12,COc1ccc(C(O)c2nc(-c3ccccc3C)cs2)cc1 (configuration not stated),"inconclusive: 11.6 µM [inhibitor, partial curve]"
13,CC1CCC(NC(=O)c2ccc3c(c2)S(=O)(=O)c2ccccc2C3=O)CC1 (configuration not stated),"inconclusive: 29.1 µM [inhibitor, single point]"
14,O=C(CCc1ccccn1)NC1CCCc2c1cnn2-c1ccc(F)cc1F (configuration not stated),inactive
15,CC1(C)CC(=O)c2sc(NC(=O)c3ccco3)nc2C1,inactive
16,O=C(NCCN1CCOCC1)c1ccc2c(c1)N(Cc1ccccc1)CCS2,"inconclusive: 29.1 µM [inhibitor, single point]"
17,CCOC(=O)c1sc(N(Cc2ccccc2)C(=O)CCl)nc1C,"inconclusive: 25.9 µM [inhibitor, single point]"
18,CCc1ccc(OCCNC(=O)c2ccccc2SCc2ccccc2)cc1,"inconclusive: 29.1 µM [inhibitor, single point]"
19,CCOC(=O)c1cc(-c2nnc(SCC(=O)Nc3ccc(F)cc3)o2)c(C)nc1C,"inconclusive: 16.4 µM [inhibitor, single point]"
20,CCOC(=O)C1(CCOc2ccccc2)CCN(Cc2cccc(OC)c2OC)CC1,"inconclusive: 25.9 µM [inhibitor, single point]"
21,Clc1cccc(Nc2nc(-c3cccnc3)cs2)c1,"inconclusive: 23.1 µM [inhibitor, single point]"
22,CC(Sc1nnnn1-c1ccc(O)cc1)C(=O)NNC(=O)c1ccc(F)cc1 (configuration not stated),inactive
23,O=C(OCC(=O)N1CCCc2ccccc21)c1ccc(Cl)nc1,inactive
24,CCCN[C@H]1CCc2nc(N)sc2C1,"inconclusive: 29.9 µM [inhibitor, single point]"

row,SMILES,Potency
1,O=C(NCC(c1ccc2c(c1)OCO2)N1CCN(c2ccccc2)CC1)c1ccc(F)c(F)c1 (configuration not stated),active: 5.17 µM
2,O=C(Nc1ccc(F)cc1F)C1CCN(C(=O)c2cnn(-c3ccccc3)c2-n2cccc2)CC1,"inconclusive: 18.4 µM [inhibitor, single point]"
3,CCN1CCCC1CNC(=O)c1ccc2c(c1)NC(=O)/C(=C\c1ccccc1F)S2 (configuration not stated),active: 18.4 µM
4,CC(=O)NCCC(=O)Nc1cc(S(=O)(=O)N2CCCCC2)ccc1N1CCN(C)CC1,inactive
5,COC(=O)c1oc2ccc(Br)cc2c1NC(=O)CN1CCN(C)CC1,inactive
6,CCc1ccc(CN(C)Cc2nc(Cc3ccc(OC)c(OC)c3)no2)nc1,active: 16.4 µM
7,Cc1onc(-c2c(F)cccc2Cl)c1C(O)c1ccc(F)cc1 (configuration not stated),inactive
8,COc1ccc(N2C(=O)CC(N3CCCCC3)C2=O)cc1 (configuration not stated),"inconclusive: 29.1 µM [inhibitor, single point]"
9,O=C1NC(c2ccccc2)N=C2Oc3ccccc3C=C12 (configuration not stated),active: 4.61 µM
10,COCCCn1c2nc3ccccc3nc2c2c(=O)n(-c3ccccc3OC)cnc21,"inconclusive: 2.06 µM [inhibitor, full curve, poor fit]"
11,CC(=O)N1CCC2(CC1)CN(c1cccc(-c3ccccc3)c1)C2,inactive
12,COC(=O)c1c(N)n(-c2ccc(NC(C)=O)cc2)c2nc3ccccc3nc12,active: 23.1 µM
13,Cc1cc(C)cc(NC(=O)N2CCCC2C(=O)Nc2ccc(-n3cnnn3)c(C)c2)c1 (configuration not stated),inactive
14,O=C(Oc1ccccc1)N1CCN(C(=O)c2ccco2)CC1,inactive
15,CC1(c2ccc(OCC#N)cc2)C=C(c2ccc(OCC#N)cc2)n2nc(C(F)(F)F)nc2N1 (configuration not stated),"inconclusive: 16.4 µM [inhibitor, partial curve, poor fit]"
16,COc1ccccc1/C=C/c1ccc2cccc(O)c2n1,"inconclusive: 16.4 µM [inhibitor, single point]"
17,Cn1cccc1-c1cc2n(n1)CCC(=O)N2CCCC(=O)NCc1cccc(Cl)c1,inactive
18,COCCNC(=O)c1ccc2c(c1)ncn2-c1cc(C)ccc1OC,inactive
19,Oc1ccc(C(c2nnnn2C2CCCC2)N2CCc3ccccc3C2)cc1 (configuration not stated),"inconclusive: 29.1 µM [inhibitor, single point]"
20,CCOc1ccc(NS(=O)(=O)c2c(C)nc3sc(CC)nn3c2=O)cc1,"inconclusive: 25.9 µM [inhibitor, single point] and inconclusive: 29.1 µM [inhibitor, single point]"
21,Cc1cccc(C)c1NC1=NC(=S)N(c2ccccc2)C12CCOC(C)(C)C2 (configuration not stated),"inconclusive: 20.6 µM [inhibitor, single point]"
22,Cc1ccc2nc(-c3ccco3)c(Cc3cccc(Cl)c3)n2c1,"inconclusive: 29.1 µM [inhibitor, single point]"
23,CCc1ccc(CNC(=O)Cn2nc(C)c3nn(-c4ccc(Cl)cc4)c(C)c3c2=O)cc1,"inconclusive: 29.1 µM [inhibitor, single point]"
